Measured values from US20230143604A1, “QW DOSING OF GIP RECEPTOR AGONIST PEPTIDE COMPOUNDS AND USES THEREOF” (TAKEDA PHARMACEUTICAL COMPANY LIMITED, priority 2020, published 2023).
At least one peptide structure holds a part that was inferred or is arguable (an end, a ring closure or a residue). Starred links: 1 amine or outer side, 2 acyl side, 3 side chain; linkers in the order of their positions; H or OH if unused. Non-standard residues stand in square brackets, D forms with d. Residues, ends and D or L forms follow the SMILES beside them. Groups on a side chain read outwards from the residue. *: point of attachment. C18 diacid = O=C(O)CCCCCCCCCCCCCCCCC(=O)*; γGlu = O=C(O)[C@H](CCC(=O)[*:2])N[*:1]; NMeY = CN[C@@H](Cc1ccc(O)cc1)C(=O)O; AEEA = NCCOCCOCC(=O)O; Aib = CC(C)(N)C(=O)O

What follows are compounds tested against T1, human GLP-1R (Homo sapiens, UniProt P43220) (assay: Human GLP1R agonist activity, intracellular cAMP accumulation). Settings: read-out: Human GLP1R cAMP EC50, HEK293T, HEK-293T cells overexpressing human GLP-1R, 1 hr.
T1 construct: HEK-293T cells overexpressing full-length human GLP-1R; FLAG (N); host or cells: HEK-293T
Format: cell-based
Summary of the method: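 cAMP accumulation is measured by HTRF after a 1 hr, room-temperature, dark exposure of thawed cells (4×10^5 cells/mL in Krebs Ringer buffer) to compound. Activity is scaled between DMSO alone as 0% and 1 nm GLP-1 as 100%.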

T1 sequence (P43220 24-463): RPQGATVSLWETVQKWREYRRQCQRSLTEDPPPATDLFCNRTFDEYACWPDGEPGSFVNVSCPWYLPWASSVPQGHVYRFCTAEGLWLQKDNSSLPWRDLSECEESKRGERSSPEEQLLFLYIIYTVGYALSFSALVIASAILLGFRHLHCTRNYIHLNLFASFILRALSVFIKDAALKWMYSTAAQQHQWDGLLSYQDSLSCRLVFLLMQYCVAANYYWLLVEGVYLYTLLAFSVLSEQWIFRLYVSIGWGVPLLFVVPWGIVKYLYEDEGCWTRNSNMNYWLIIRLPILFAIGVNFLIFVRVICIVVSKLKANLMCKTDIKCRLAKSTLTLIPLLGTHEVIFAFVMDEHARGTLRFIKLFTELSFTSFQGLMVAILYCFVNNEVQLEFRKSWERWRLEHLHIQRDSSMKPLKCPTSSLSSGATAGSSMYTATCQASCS

| SMILES | EC50 |
| --- | --- |
| CC[C@H](C)[C@H](NC(=O)[C@H](Cc1ccccc1)NC(=O)[C@@H](NC(=O)CNC(=O)[C@H](CCC(=O)O)NC(=O)C(C)(C)NC(=O)[C@H](Cc1ccc(O)cc1)NC)[C@@H](C)O)C(=O)N[C@@H](CO)C(=O)N[C@@H](CC(=O)O)C(=O)N[C@@H](Cc1ccc(O)cc1)C(=O)N[C@@H](CO)C(=O)N[C@H](C(=O)NC(C)(C)C(=O)N[C@@H](CC(C)C)C(=O)N[C@@H](CC(=O)O)C(=O)N[C@@H](CCCNC(=N)N)C(=O)NC(C)(C)C(=O)N[C@@H](C)C(=O)N[C@@H](CCC(N)=O)C(=O)NC(C)(C)C(=O)N[C@@H](CCCCNC(=O)COCCOCCNC(=O)CC[C@H](NC(=O)CC[C@H](NC(=O)CCCCCCCCCCCCCCCCC(=O)O)C(=O)O)C(=O)O)C(=O)N[C@@H](Cc1ccccc1)C(=O)N[C@H](C(=O)N[C@@H](CC(N)=O)C(=O)N[C@@H](Cc1c[nH]c2ccccc12)C(=O)N[C@@H](CC(C)C)C(=O)N[C@@H](CC(C)C)C(=O)N[C@@H](C)C(=O)N[C@@H](CCC(N)=O)C(=O)N[C@@H](CO)C(=O)N1CCC[C@H]1C(=O)N[C@@H](CO)C(=O)N[C@@H](CO)C(=O)NCC(=O)N[C@@H](C)C(=O)N1CCC[C@H]1C(=O)N1CCC[C@H]1C(=O)N1CCC[C@H]1C(=O)N[C@@H](CO)C(N)=O)C(C)C)[C@@H](C)CC [Compound 93] (H-[NMeY][Aib]EGTFISDYSI[Aib]LDR[Aib]AQ[Aib]K([AEEA-γGlu-γGlu-C18 diacid])FVNWLLAQSPSSGAPPPS-NH2) | 29.5 nM |

What follows are compounds tested on C57BL/6J mice (assay: Oral glucose tolerance test (OGTT)). Settings: 3 nmol/kg s.c., 24 hours before glucose loading.
Format: in vivo
Description: An oral glucose tolerance test (OGTT) was carried out using C57BL/6J mice with a 50% dextrose solution dosed at 5 ml/kg. Testing concentrations of 0.1 nmol/kg, 0.3 nmmol/kg, 3 nmol/kg or 10 nmol/kg were selected depending on the peptide. Each peptide or a vehicle (control group) was subcutaneously administered 24 hours (unless shown otherwise) before glucose loading and the blood glucose was measured at 0, 15, 30, and 60 minutes after glucose dosing.
% inhibition=(1−(AUC cpd−AUC naïve/AUC veh−AUC naïve))×100.

| SMILES | Oral Glucose Tolerance Test Percent decrease in blood glucose AUC (%) over 60 mins |
| --- | --- |
| CC[C@H](C)[C@H](NC(=O)[C@H](Cc1ccccc1)NC(=O)[C@@H](NC(=O)CNC(=O)[C@H](CCC(=O)O)NC(=O)C(C)(C)NC(=O)[C@H](Cc1ccc(O)cc1)NC)[C@@H](C)O)C(=O)N[C@@H](CO)C(=O)N[C@@H](CC(=O)O)C(=O)N[C@@H](Cc1ccc(O)cc1)C(=O)N[C@@H](CO)C(=O)N[C@H](C(=O)NC(C)(C)C(=O)N[C@@H](CC(C)C)C(=O)N[C@@H](CC(=O)O)C(=O)N[C@@H](CCCNC(=N)N)C(=O)NC(C)(C)C(=O)N[C@@H](C)C(=O)N[C@@H](CCC(N)=O)C(=O)NC(C)(C)C(=O)N[C@@H](CCCCNC(=O)COCCOCCNC(=O)CC[C@H](NC(=O)CC[C@H](NC(=O)CCCCCCCCCCCCCCCCC(=O)O)C(=O)O)C(=O)O)C(=O)N[C@@H](Cc1ccccc1)C(=O)N[C@H](C(=O)N[C@@H](CC(N)=O)C(=O)N[C@@H](Cc1c[nH]c2ccccc12)C(=O)N[C@@H](CC(C)C)C(=O)N[C@@H](CC(C)C)C(=O)N[C@@H](C)C(=O)N[C@@H](CCC(N)=O)C(=O)N[C@@H](CO)C(=O)N1CCC[C@H]1C(=O)N[C@@H](CO)C(=O)N[C@@H](CO)C(=O)NCC(=O)N[C@@H](C)C(=O)N1CCC[C@H]1C(=O)N1CCC[C@H]1C(=O)N1CCC[C@H]1C(=O)N[C@@H](CO)C(N)=O)C(C)C)[C@@H](C)CC [Compound 93] (H-[NMeY][Aib]EGTFISDYSI[Aib]LDR[Aib]AQ[Aib]K([AEEA-γGlu-γGlu-C18 diacid])FVNWLLAQSPSSGAPPPS-NH2) | 24% (3 nmol/kg) |
| CC[C@H](C)[C@H](NC(=O)[C@H](CO)NC(=O)[C@H](Cc1ccc(O)cc1)NC(=O)[C@H](CC(=O)O)NC(=O)[C@H](CO)NC(=O)[C@@H](NC(=O)[C@H](Cc1ccccc1)NC(=O)[C@@H](NC(=O)CNC(=O)[C@H](CCC(=O)O)NC(=O)C(C)(C)NC(=O)[C@H](Cc1ccc(O)cc1)NC)[C@@H](C)O)[C@@H](C)CC)C(=O)N[C@@H](C)C(=O)N[C@@H](CC(C)C)C(=O)N[C@@H](CC(=O)O)C(=O)N[C@@H](CCCNC(=N)N)C(=O)NC(C)(C)C(=O)N[C@@H](C)C(=O)N[C@@H](CCC(N)=O)C(=O)NC(C)(C)C(=O)N[C@@H](CCCCNC(=O)COCCOCCNC(=O)COCCOCCNC(=O)CC[C@H](NC(=O)CC[C@H](NC(=O)CCCCCCCCCCCCCCCCC(=O)O)C(=O)O)C(=O)O)C(=O)N[C@@H](Cc1ccccc1)C(=O)N[C@H](C(=O)N[C@@H](CC(N)=O)C(=O)N[C@@H](Cc1c[nH]c2ccccc12)C(=O)N[C@@H](CC(C)C)C(=O)N[C@@H](CC(C)C)C(=O)N[C@@H](C)C(=O)N[C@@H](CCC(N)=O)C(=O)N[C@@H](CCCNC(=N)N)C(=O)N1CCC[C@H]1C(=O)N[C@@H](CO)C(=O)N[C@@H](CO)C(=O)NCC(=O)N[C@@H](C)C(=O)N1CCC[C@H]1C(=O)N1CCC[C@H]1C(=O)N1CCC[C@H]1C(=O)N[C@@H](CO)C(N)=O)C(C)C [Compound 35] (H-[NMeY][Aib]EGTFISDYSIALDR[Aib]AQ[Aib]K([AEEA-AEEA-γGlu-γGlu-C18 diacid])FVNWLLAQRPSSGAPPPS-NH2) | 47%, (3 nmol/kg) |
| CC[C@H](C)[C@H](NC(=O)[C@H](CO)NC(=O)[C@H](Cc1ccc(O)cc1)NC(=O)[C@H](CC(=O)O)NC(=O)[C@H](CO)NC(=O)[C@@H](NC(=O)[C@H](Cc1ccccc1)NC(=O)[C@@H](NC(=O)CNC(=O)[C@H](CCC(=O)O)NC(=O)C(C)(C)NC(=O)[C@H](Cc1ccc(O)cc1)NC)[C@@H](C)O)[C@@H](C)CC)C(=O)N[C@@H](C)C(=O)N[C@@H](CC(C)C)C(=O)N[C@@H](CC(=O)O)C(=O)N[C@@H](CCCNC(=N)N)C(=O)NC(C)(C)C(=O)N[C@@H](CCCCNC(=O)COCCOCCNC(=O)COCCOCCNC(=O)CC[C@H](NC(=O)CC[C@H](NC(=O)CCCCCCCCCCCCCCCCC(=O)O)C(=O)O)C(=O)O)C(=O)N[C@@H](CCC(N)=O)C(=O)NC(C)(C)C(=O)N[C@@H](CC(=O)O)C(=O)N[C@@H](Cc1ccccc1)C(=O)N[C@H](C(=O)N[C@@H](CC(N)=O)C(=O)N[C@@H](Cc1c[nH]c2ccccc12)C(=O)N[C@@H](CC(C)C)C(=O)N[C@@H](CC(C)C)C(=O)N[C@@H](C)C(=O)N[C@@H](CCC(N)=O)C(=O)N[C@@H](CCCNC(=N)N)C(=O)NCC(=O)O)C(C)C [Compound 49] (H-[NMeY][Aib]EGTFISDYSIALDR[Aib]K([AEEA-AEEA-γGlu-γGlu-C18 diacid])Q[Aib]DFVNWLLAQRG-OH) | 36% (3 nmol/kg) |
| CC[C@H](C)[C@H](NC(=O)[C@H](CO)NC(=O)[C@H](Cc1ccc(O)cc1)NC(=O)[C@H](CC(=O)O)NC(=O)[C@H](CO)NC(=O)[C@@H](NC(=O)[C@H](Cc1ccccc1)NC(=O)[C@@H](NC(=O)CNC(=O)[C@H](CCC(=O)O)NC(=O)C(C)(C)NC(=O)[C@H](Cc1ccc(O)cc1)NC)[C@@H](C)O)[C@@H](C)CC)C(=O)N[C@@H](C)C(=O)N[C@@H](CC(C)C)C(=O)N[C@@H](CC(=O)O)C(=O)N[C@@H](CCCNC(=N)N)C(=O)NC(C)(C)C(=O)N[C@@H](C)C(=O)N[C@@H](CCC(N)=O)C(=O)NC(C)(C)C(=O)N[C@@H](CC(N)=O)C(=O)N[C@@H](Cc1ccccc1)C(=O)N[C@H](C(=O)N[C@@H](CC(N)=O)C(=O)N[C@@H](Cc1c[nH]c2ccccc12)C(=O)N[C@@H](CC(C)C)C(=O)N[C@@H](CC(C)C)C(=O)N[C@@H](C)C(=O)N[C@@H](CCCCNC(=O)COCCOCCNC(=O)COCCOCCNC(=O)CC[C@H](NC(=O)CC[C@H](NC(=O)CCCCCCCCCCCCCCCCC(=O)O)C(=O)O)C(=O)O)C(=O)N[C@@H](CCCNC(=N)N)C(=O)NCC(=O)O)C(C)C [Compound 55] (H-[NMeY][Aib]EGTFISDYSIALDR[Aib]AQ[Aib]NFVNWLLAK([AEEA-AEEA-γGlu-γGlu-C18 diacid])RG-OH) | 13% (3 nmol/kg) |
| CC[C@H](C)[C@H](NC(=O)[C@H](Cc1ccccc1)NC(=O)[C@@H](NC(=O)CNC(=O)[C@H](CCC(=O)O)NC(=O)C(C)(C)NC(=O)[C@H](Cc1ccc(O)cc1)NC)[C@@H](C)O)C(=O)N[C@@H](CO)C(=O)N[C@@H](CC(=O)O)C(=O)N[C@@H](Cc1ccc(O)cc1)C(=O)N[C@@H](CO)C(=O)N[C@H](C(=O)NC(C)(C)C(=O)N[C@@H](CC(C)C)C(=O)N[C@@H](CC(=O)O)C(=O)N[C@@H](CCCNC(=N)N)C(=O)NC(C)(C)C(=O)N[C@@H](C)C(=O)N[C@@H](CCC(N)=O)C(=O)NC(C)(C)C(=O)N[C@@H](CCCCNC(=O)COCCOCCNC(=O)COCCOCCNC(=O)CC[C@H](NC(=O)CC[C@H](NC(=O)CCCCCCCCCCCCCCCCC(=O)O)C(=O)O)C(=O)O)C(=O)N[C@@H](Cc1ccccc1)C(=O)N[C@H](C(=O)N[C@@H](CC(N)=O)C(=O)N[C@@H](Cc1c[nH]c2ccccc12)C(=O)N[C@@H](CC(C)C)C(=O)N[C@@H](CC(C)C)C(=O)N[C@@H](C)C(=O)N[C@@H](CCC(N)=O)C(=O)N[C@@H](CO)C(=O)N1CCC[C@H]1C(=O)N[C@@H](CO)C(=O)N[C@@H](CO)C(=O)NCC(=O)N[C@@H](C)C(=O)N1CCC[C@H]1C(=O)N1CCC[C@H]1C(=O)N1CCC[C@H]1C(=O)N[C@@H](CO)C(N)=O)C(C)C)[C@@H](C)CC [Compound 90] (H-[NMeY][Aib]EGTFISDYSI[Aib]LDR[Aib]AQ[Aib]K([AEEA-AEEA-γGlu-γGlu-C18 diacid])FVNWLLAQSPSSGAPPPS-NH2) | 41% (3 nmol/kg) |
| CC[C@H](C)[C@H](NC(=O)[C@H](Cc1ccccc1)NC(=O)[C@@H](NC(=O)CNC(=O)[C@H](CCC(=O)O)NC(=O)C(C)(C)NC(=O)[C@H](Cc1ccc(O)cc1)NC)[C@@H](C)O)C(=O)N[C@@H](CO)C(=O)N[C@@H](CC(=O)O)C(=O)N[C@@H](Cc1ccc(O)cc1)C(=O)N[C@@H](CO)C(=O)N[C@H](C(=O)NC(C)(C)C(=O)N[C@@H](CC(C)C)C(=O)N[C@@H](CC(=O)O)C(=O)N[C@@H](CCCNC(=N)N)C(=O)NC(C)(C)C(=O)N[C@@H](C)C(=O)N[C@@H](CCC(N)=O)C(=O)NC(C)(C)C(=O)N[C@@H](CCCCNC(=O)COCCOCCNC(=O)COCCOCCNC(=O)CC[C@H](NC(=O)CC[C@H](NC(=O)CCCCCCCCCCCCCCCCC(=O)O)C(=O)O)C(=O)O)C(=O)N[C@@H](Cc1ccccc1)C(=O)N[C@H](C(=O)N[C@@H](CC(N)=O)C(=O)N[C@@H](Cc1c[nH]c2ccccc12)C(=O)N[C@@H](CC(C)C)C(=O)N[C@@H](CC(C)C)C(=O)N[C@@H](C)C(=O)N[C@@H](CCC(N)=O)C(=O)N[C@@H](CCCCN)C(=O)NCC(=O)O)C(C)C)[C@@H](C)CC [Compound 66] (H-[NMeY][Aib]EGTFISDYSI[Aib]LDR[Aib]AQ[Aib]K([AEEA-AEEA-γGlu-γGlu-C18 diacid])FVNWLLAQKG-OH) | 67% (3 nmol/kg) |
